B1: CPEB3 Ribozyme (parent)
chain: UAACAGGGGGCCACAGCAGAAGCGUUCACGUCGCAGCCCCUGUCAGAUUCUGGUGAAUCUGCGAAUUCUGCUGUAUAUCUC

For 34 variants, self-cleavage results are on record in the RNAGym collection of RNA variant scans (doi:10.1093/nar/gkz1192).

The source gives no read counts; variants with many changes may rest on few reads.

Variants of B1 are the subject of this data set. Kind of data set: self-cleavage, relative activity (ratio to wild type); higher = more cleavage; in vitro, sequencing. The essentials: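 Relative activity was defined as the cleaved/total read fraction for a variant divided by the same fraction for the unmutated ribozyme. CPEB3 self-cleaving ribozyme libraries were made by rounds of error-prone PCR, barcoded, and transcribed in vitro with T7 RNA polymerase for 5 hours at 37°C, and cleavage ran through transcription plus a 15 min DNase I step before EDTA. Illumina sequencing of template-switched reverse transcripts gave the reads, and DNA sequencing mapped the barcodes. Averages come from three batches, using variants with at least 5 reads.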
Turning to UAACAGGGGGCCAAAGCAGAAGCGUUCGCGUCGCUGCUCCUGUCAGAUUCCGGUGAAUCUGCGAACUCUGCUGUAUAUCUC [C14A A28G A35U C38U U51C U66C], the self-cleavage was determined as 0.05. To UAACAGGGGGCCAAAGCAGAAGUGUUCACGUCGCAGCCCCUGUCAGAUUCUGGUGAAUCCGCGUAUUCUGCUGUAUAUCUC [C14A C23U U60C A64U] belongs 0.09; to UAACAGGGGGCCAAAGCAGAAGCGUUCACGUUGCUGCCCCUGUCAGAUUCUGGUGAAUCUGCGAAUUCUGCUGUAUAUCUC [C14A C32U A35U], 0.18. To UAACAGGGGGCCAAAGCAGAAGCGUUCACGUCGCAGCCCCUGUCAGAUUCCGGUGAACCUGCGAACUCUGCUGUAUAUCUC [C14A U51C U58C U66C] belongs 0.17; to UAACAGGGGGCCAAAGCAGAAGCGCUCACGUCGCAGCCCCUGUCAGAUUCUGGUGAACCAGCGAAUUCUGCUGUAUAUCAC [C14A U25C U58C U60A U80A], 0.05; to UAACAGGGGGCCAAAGCAGAAGCGUUCACGUCGCAGCCCCUGUCAGAUUCUGGCGUAUCAGCGAAUUCUGCUGUAUAUCUC [C14A U54C A56U U60A], 0.15. On to UAACAGGGGGCCAGAGCAGAGGCGUUCACGUCGCAGCCCCUGUCAGAUUCUGGUGAAUCCGCGAACUCUGCUGUAAAUCUC [C14G A21G U60C U66C U76A], for which the self-cleavage is 0.75.

For the variant UAACAGGGGGCCAAAGCAGGAGCAUUCACGUCGCAGCCCCUGUCAGAUUCUGGUGAAUCUGCGAAUUCUGCUGUAUAUCCC [C14A A20G G24A U80C], the self-cleavage was 0.4.

Regarding UAACAGGGGGCCAAAGCAGAUGCGCUCACGUCGCAGCCCCUGUCAGAUUCUGGUGAAUCUGCGAAUUCGGCUGUAUAUCUC [C14A A21U U25C U69G], the self-cleavage amounted to 0.14. To UAACAGGGGGCCAAAGCAGAAGCGUUCACGUCGCAGCCCCUGUCAGAUUCUGGUGAAUCUGCGAGUUCUGCUGCAUAUCUC [C14A A65G U74C] belongs 0.95. To UAACAGGGGGCCAAAGCAGAAGCGUUCACGUCGCAGCCCCUGUCAGAUUCGGGUGAACCUGCGAAUUCUGCUGUAUAUCAC [C14A U51G U58C U80A] belongs 1.21; to UAACAGGGGGCCAAAGCAGAAGUGUUCACGGCGCAGCCCCUGUCAGAUUCUGGUGAAUCUGCGUAUUCUGCUGUAUAUCUC [C14A C23U U31G A64U], 0.15; to UAACAGGGGGCCAAAGCAGAAGCGUUCACGUCGCAGCCCCUGUCAGAUUCUGGCGAAUCUGCGGAUUCUGCUGUAUAUCUC [C14A U54C A64G], 0.37. On to UAACAGGGGGCCAAAGCAGAAGCGUGCACGUCGCAGCCCCUGUCAGAUACUGGCGAAUCUGCGAAUUCUGCUGAAUAUCUC [C14A U26G U49A U54C U74A], for which the self-cleavage is 0.1.

On to UAACAGGGGGCCAAAGCAGAAGCGUUCACGUCGCAGCCCCCGGCUGAUUCUGGUGAAUCUGCGAAUUCUGCUGUAUAUCUC [C14A U41C U43G A45U], for which the self-cleavage was 0.04. To UAACAGGGGGCCAAAGCAGAAGCGUUCACGUCGCAGCCCCCGUCAGAUUCUAGUGAAUCUGCGAAUUCUGCUGUAUAUCUC [C14A U41C G52A] belongs 1.18. As for UAACAGGGGGCCAAAGCAGAAGCGUUCACGUCGCAGCUCCUGUCAGAAUCAGGAGAAUCUGCGAAUUCUGCUGUAUAUCUC [C14A C38U U48A U51A U54A], the self-cleavage came out at 0.06. For UAACAGGGGGCCAAAGCAGAAGCGUUCACGUCGCAGCCCCUGUCAGAUUCCGGUGAAUCUGCGAAUUCUGCUGCAUAUCUC [C14A U51C U74C] the value was 1.2; for UAACAGGGGGCCAGGGCGGAAGCGUUCACGUCGCAGCCUCUGUCAGAUUCUGGUGAAUCUGCGAAUUCUGCUGUAUAUCUC [C14G A15G A18G C39U], 0.32.

For UAACAGGGGGCCAAAGCAGAAGCGUUCACGUCGCAGCCCCUGUCAGAUUCUGGUGAAUCCGCGAAUCCUGCUGUAUAUCUC [C14A U60C U67C], the self-cleavage amounted to 0.35. To UAACAGGGGGCCAAAGCAGAAGAGUCCACGUCGCAGCCCCUGUCAGACUCUGGUGAAUCUGCGAAUUCUGCUGUAUAUCUC [C14A C23A U26C U48C] belongs 0.07; to UAACAGGGGGCCAAAGCAGAAGCGUUCUCGUCGCAGCCCCUGUCAGGUUCUGGUGGAUCUGCGAAUUCCGCUGUAUAUCUC [C14A A28U A47G A56G U69C], 0.19; to UAACAGGGGGCCAAAGCAGAAGCGUUCACGUCGCAGCCCCUGUCAGAUUCUGGUGAAUCUGCGGAUUCUGCUGUAUAUCCC [C14A A64G U80C], 1.23. Take UAACAGGGGGCCAGAGCAAAAGCGUUCACGUCGCAGCCCCUGUCAGAUUCUGGUGAAUCUGCGAAUUCUGCUGUAAAUCAC [C14G G19A U76A U80A]: the self-cleavage came to 0.07. To UAACAGGGGGCCAGAGCAGAAGCGUUCACGUCGCAGCCCCUGUCAGAUUAUGGUGAAUCUGCGAAUACUGCUGUAUAUCUC [C14G C50A U67A] belongs 0.52; to UAACAGGGGGCCAAAGCAGGAGCGUUCACGUCGCAGCCCCUGUCAGAUUAUGGUGAAUCUGCGAAUUCUGCUGUAUAUCUC [C14A A20G C50A], 0.65; to UAACAGGGGGCCAAAGCAGAAGCGCUCACGUCGCAGCCCCUGUCAGAUUCUGGUGAAUCUGCGAAUUCUGCUGCAUAUCAC [C14A U25C U74C U80A], 0.33. For UAACAGGGGGCCAAAGCAGAAGCGUUCACGCCGCAGCCCCUGUCAGAUUCAGGUGAAUCUGCGAGUUCUGCUGUAUAUCUC [C14A U31C U51A A65G] the value was 0.24; for UAACAGGGGGCCAAAGCAGGAGCGUUCACGUCGCAGCCCCUGUCAGAUCCUGGUGAAUCUGCGAAUUCUGCCGUAUAUCUC [C14A A20G U49C U72C], 0.12. Consider UAACAGGGGGCCAGAGCAGAAGGGUUCACGCCGCAGCCCCUGUCAGAUUCUGAUGAACCUGCGAAUUCUGCUGUAUAUCUC [C14G C23G U31C G53A U58C], for which the self-cleavage was 0.13. To UAACAGGGGGCCAAAGCAGAGGCGUUCACGUCGCAGACCCUGUCAGAUUCUGGUGAAUCUGCGAAUUCUGCUGUAUAUCCC [C14A A21G C37A U80C] belongs 0.33. Take UAACAGGGGGCCAGAGCAGAAGCGUUCACGUCGCAGCCCCUGUUAGAUUAUGGAGAAUCUGCGAAUUCCGCUGUAUAUCUC [C14G C44U C50A U54A U69C]: the self-cleavage is 0.07.

Turning to UAACAGGGGGCCAGAGCAGAUGCGUUCACGUCGCAGCCCCUGUCAGAUUCUGGUGAAUCUGCGUAUUAUGCUGUAUAUCUC [C14G A21U A64U C68A], the self-cleavage came out at 0.15. Consider UAACAGGGGGCCAAAGCAGAAGCGUUCACGUCGCGGUCCCUGUCAGGUUCUGGUGAAUUUGCGAAUUCUGCCGUAUAUCCC [C14A A35G C37U A47G C59U U72C U80C], for which the self-cleavage was 1.3.
